# In PMC4336329 (PLoS ONE, 2015):
# About 14,000 (4.5%) of roughly 310,000 compounds showed an effect of 50% or more. The effect is printed as a negative number. The list shows a part of the results.
# Target: human ether-à-go-go-related gene (hERG) potassium channel (human, UniProt Q12809)
# Test: primary screen, population patch clamp on CHO cells stably expressing hERG
# 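Note: peak tail current of the secondary pulse compared with the same well before compound.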
# Chain of human ether-à-go-go-related gene (hERG) potassium channel (Q12809 whole entry, looked up): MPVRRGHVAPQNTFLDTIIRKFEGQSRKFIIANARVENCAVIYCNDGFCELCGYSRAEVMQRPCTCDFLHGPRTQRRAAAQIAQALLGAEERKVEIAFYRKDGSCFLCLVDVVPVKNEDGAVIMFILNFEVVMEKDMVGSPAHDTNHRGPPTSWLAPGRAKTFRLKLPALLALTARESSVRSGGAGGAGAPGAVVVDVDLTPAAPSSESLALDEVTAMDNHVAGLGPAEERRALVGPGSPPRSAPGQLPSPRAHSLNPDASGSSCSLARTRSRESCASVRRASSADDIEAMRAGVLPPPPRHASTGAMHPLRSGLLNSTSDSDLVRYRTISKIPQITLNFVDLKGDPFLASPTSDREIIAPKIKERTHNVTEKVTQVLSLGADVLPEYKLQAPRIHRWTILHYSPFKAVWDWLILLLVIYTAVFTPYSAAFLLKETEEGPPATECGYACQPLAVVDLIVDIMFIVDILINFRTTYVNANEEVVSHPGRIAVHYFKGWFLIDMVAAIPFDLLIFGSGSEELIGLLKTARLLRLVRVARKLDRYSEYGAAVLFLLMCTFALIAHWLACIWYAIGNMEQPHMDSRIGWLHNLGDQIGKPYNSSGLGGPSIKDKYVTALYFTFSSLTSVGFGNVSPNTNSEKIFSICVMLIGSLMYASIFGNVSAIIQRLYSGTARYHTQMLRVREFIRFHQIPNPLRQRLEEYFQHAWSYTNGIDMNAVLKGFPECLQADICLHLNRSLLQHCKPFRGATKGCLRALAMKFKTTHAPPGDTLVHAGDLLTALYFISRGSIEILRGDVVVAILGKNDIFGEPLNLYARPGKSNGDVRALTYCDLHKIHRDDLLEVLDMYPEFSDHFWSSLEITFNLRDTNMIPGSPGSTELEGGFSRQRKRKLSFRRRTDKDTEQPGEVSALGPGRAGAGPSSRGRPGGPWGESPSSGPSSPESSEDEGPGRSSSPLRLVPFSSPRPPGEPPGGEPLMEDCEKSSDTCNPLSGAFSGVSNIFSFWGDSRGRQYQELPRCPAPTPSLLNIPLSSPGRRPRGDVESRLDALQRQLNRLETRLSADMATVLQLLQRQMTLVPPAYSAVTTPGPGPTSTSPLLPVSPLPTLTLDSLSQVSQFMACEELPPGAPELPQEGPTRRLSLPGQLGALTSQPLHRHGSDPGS
row,SMILES,"hERG current change (%, negative = inhibition) at 10uM"
1,CC(C)[C@H](NC(N)=O)C(=O)NNC(=O)COc1cccc(C(F)(F)F)c1,7.71%
2,CCOC(=O)c1sc(=NC(=O)C2CC2)n(C)c1C,10.2%
3,Cc1cccc(NC2=CC(=O)CC(C)(C)C2)c1C,4.17%
4,O=S1(=O)NC(c2ccccc2)CC(CC2CCCCC2)O1 (stereo not drawn),-13.2%
5,CCOC(=O)C1=C(O)/C(=C/c2ccc(OCC(=O)O)c(OC)c2)SC1=Nc1ccc(OCC)cc1,9.86%
6,COc1cc(OC)cc(C(=O)OCC(=O)NC(C)CCc2ccccc2)c1 (stereo not drawn),28.4%
7,CCCc1cc(N2CCOCC2)n2ncc(-c3ccccc3)c2n1,14.4%
8,CC(C)c1ccc(CNC(=O)C(=O)NCC2CCCO2)cc1 (stereo not drawn),7.73%
9,CCN(c1ccccc1)S(=O)(=O)c1ccc2[nH]c(=O)[nH]c2c1,-0.668%
10,COC(=O)[C@@]1(Cc2ccc(F)cc2)[C@H]2c3cc(C(=O)N(C)C)n(Cc4ccc(OC)c(OC)c4)c3C[C@H]2CN1C(=O)c1ccccc1,-42.6%
11,CC(=O)Nc1ccc2c(c1)C(=O)c1ccccc1C2=O,12.2%
12,COc1ccc(-c2nn(-c3ccccc3)cc2/C=N/O)cc1,5.13%
13,O=C(N/N=C/c1c(F)cccc1Cl)C(=O)N1CCCCCC1,8.16%
14,COc1ccc(C(=O)C2CCCN(C(=O)C3CCOCC3)C2)c(C)c1 (stereo not drawn),27%
15,COc1cccc(/C=N/NC(=O)CC(=O)NCCc2ccc(OC)c(OC)c2)c1,-11.9%
16,COC(=O)c1cc(NC(=O)CN2C(=O)C(=O)N(C3CCCC3)C2=O)cc(C(=O)OC)c1,-8.81%
17,Cc1ccc(O)c(CN2CCN(c3ccccc3)CC2)c1,-17.2%
18,CC1CC(=O)C=C(O)C1C(=O)OC(C)(C)C (stereo not drawn),11.4%
19,Cc1sc(NC(=O)Cn2[nH]c(=O)c3ccccc3c2=O)nc1-c1ccccc1,11.6%

row,SMILES,"hERG current change (%, negative = inhibition) at 10uM"
1,C=CCOc1ccc(CNn2c(C)n[nH]c2=S)cc1OC,21.7%
2,CCn1c(Cc2cccs2)nnc1SCC(=O)Nc1ccc(OC)c(OC)c1,14.9%
3,Cc1ccc(-c2cc(C(=O)N/N=C/C=C/c3ccccc3)n[nH]2)o1,-7.76%
4,CC(=O)N1c2ccc(S(=O)(=O)N3CCC(C(=O)NCc4ccccc4Cl)CC3)cc2CC1C (stereo not drawn),8.4%
5,O=C(N/N=C/c1c[nH]c2ccccc12)c1ccncc1,9.13%
6,COc1ccc(C(CNC(=O)c2cccnc2SC)N2CCOCC2)cc1 (stereo not drawn),1.56%
7,Cc1ccn2cc(-c3ccc(Br)cc3)nc2c1,11.7%
8,CCOC(=O)c1c2c3c(cccc3[nH]c1=O)C(=O)c1ccccc1-2,17.6%
9,CC(C)CC1=NC(C(F)(F)F)(C(F)(F)F)c2c(n(CC(C)C)c(=O)[nH]c2=O)N1,21.4%
10,CC(Sc1ncnc2sc(-c3ccccc3)cc12)C(=O)N1CCNC1=O (stereo not drawn),-11.4%
11,Cn1c(=O)[nH]c(=O)c2c1nc(Br)n2C/C=N/Nc1ccccc1,-16.2%
12,CCCCCC(=O)Nc1ccc(Cc2ccncc2)cc1,-28.6%
13,O=C(c1cccc([N+](=O)[O-])c1)n1nc(-c2ccccc2)nc1NCc1ccccc1,9.75%
14,Nc1nc(-c2cccc(Br)c2)cs1,5.31%
15,C=CCOc1c(CNc2ccc3[nH]c(=O)[nH]c3c2)cccc1OC,10.1%
16,COc1ccc(CCNC(=O)Cn2nnc(-c3cccc(OC)c3OC)n2)cc1OC,6.69%
17,CC(=O)O/N=C/c1c(C)c(C=O)n2ccccc12,10.5%
18,CCOc1ccccc1/C=N/NC(=O)CNC(=O)COc1ccccc1,10.9%
19,COC1=C(C)C(O)=C(C(=O)/C=C/c2ccccc2)C(=O)C1(C)C,-11.2%

row,SMILES,"hERG current change (%, negative = inhibition) at 10uM"
1,COc1ccc(/C=C(\C#N)C(=O)N2CCOCC2)cc1Br,-4.94%
2,COc1cc(/C=C/C(=O)O)ccc1OS(=O)(=O)c1ccc(C)cc1,5.39%
3,CN1CCN(CC(=O)Nc2ccc(Oc3ccccc3)cc2)CC1,-47.5%
4,CN(CC(=O)N1CCN(c2ccc(F)cc2)CC1)S(=O)(=O)c1ccc2c(c1)c(=O)n(C)c(=O)n2C,-0.425%
5,COc1cccc(OCCNC(=O)c2cc([N+](=O)[O-])cc([N+](=O)[O-])c2)c1,-28.2%
6,N/C(=N\OC(=O)CCc1ccccc1)c1ccc(Br)cc1,10.2%
7,COc1cc(Br)cc2cc(C(=O)N3CCN(c4ccccn4)CC3)c(=O)oc12,-27.8%
8,O=[N+]([O-])c1ccc(CCn2ccnc2)cc1,-5.64%
9,COc1ccc(C(=O)NCc2nnc(SCC(=O)N3CCc4ccccc43)o2)cc1OC,13%
10,CCN1CCN(CCOCCOc2ccccc2-c2ccccc2)CC1.O=C(O)C(=O)O,-35.6%
11,Cc1cc2c(cc1C)NC(c1ccccn1)C1=C(CC(C)(C)CC1=O)N2 (stereo not drawn),7.01%
12,O=C(NCCCn1ccnc1)C(=O)NCC(c1ccco1)N1CCN(c2ccccc2)CC1 (stereo not drawn),1.01%
13,O=C(COC(=O)c1ccc([N+](=O)[O-])s1)NCc1ccc(F)cc1,19.5%
14,Cc1cc2cc(C=C(C#N)C#N)c(Cl)nc2cc1C,-30.7%
15,NC(Cc1c[nH]c2ccccc12)C(=O)NCc1ccccc1 (stereo not drawn),13.8%
16,O=S(=O)(c1cccs1)N1CCN(c2ccc(Cl)cc2)CC1,21.5%
17,Nc1ccc(Nc2ccccc2)c(Cl)c1,-5.85%
18,COCCN(C(=O)C(F)(F)F)C(C(=O)NC1CCCCC1)c1ccco1 (stereo not drawn),2.81%
19,CCC(=O)Nc1ccc(OCc2nc3ccccc3s2)cc1,21.1%
